About 4,000 (4.3%) of roughly 94,000 compounds were called active. The inconclusive results got no clear call from the source; some entries with a clear call stand among them for comparison. Calls come from the whole dose curve; as a rule, active = well fitted inhibition curve with a large enough effect; inconclusive = small, poorly fitted or top-dose-only effect; inactive = no such curve, though single readings can be large or run the other way. Where the call is inconclusive, the potency comes from a doubtful curve fit.
Assay: Cytotoxic Profiling in NIH 3T3 Cell Line of Diverse Libraries Using Quantitative High-Throughput Screening; note: nearly all actives have a fitted effect of over 55% in size
Conditions: NIH 3T3 viability, CellTiter-Glo ATP luminescence, 48-72 h; activity change, negative = cytotoxicity: at 96.7 µM (top of the series) unless noted; series mostly up to 96.7 µM
Procedure, shortened: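 ATP-dependent luminescence (CellTiter-Glo) served as the viability signal for NIH 3T3 cells treated with compound for 48 or 72 hr at 37 °C.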
For CCOC(=O)C1(Cc2cccc(C(F)(F)F)c2)CCN(Cc2cn(CC)nc2C)CC1, the Potency was inconclusive: 79.4 µM [inhibitor, partial curve]. With O=C(Nc1ccc2c(N3CCOCC3)ncnc2c1)c1ccccc1C(F)(F)F the Potency was active: 28.2 µM. For CCN1C(=O)CCN(Cc2cn(C)c3ccc(OC)cc23)CC12CCOCC2, the Potency was active: 31.6 µM. In the case of Cc1ccccc1-c1noc(-c2ccc(NC(C)c3cnn(C)c3)nc2)n1 (stereo not given), the Potency is reported as active: 44.7 µM. For O=C1NC(=NC2CCCCC2)C2(CCN(Cc3ccc(F)cc3)C2)N1c1cc(F)cc(F)c1 (stereo not given), the Potency was active: 31.6 µM. For O=C(Nc1cccc(Cl)c1)C1CCCCN1Cc1ccc(-c2cccs2)cc1 (stereo not given), the Potency was inconclusive: 39.8 µM [inhibitor, partial curve, poor fit]. In the case of CCOc1ccccc1CNC(=O)c1c(C)sc2ccn(CC(C)C)c(=O)c12, the Potency is reported as inconclusive: 50.1 µM [inhibitor, partial curve, poor fit]. With COc1ccccc1NC(=O)N1CC(C(=O)N(C)C)C2(CCOCC2)C1 (stereo not given) the “activity change, negative = cytotoxicity” value was inactive: -5.27%. In the case of O=C(NC1CCN(c2cc(-c3ccc(Cl)cc3)[nH]n2)C1)c1ccc(Br)o1 (stereo not given), the Potency is reported as inconclusive: 44.7 µM [inhibitor, partial curve, poor fit]. For CC(=O)N1CCN(c2nc3c(s2)CC(C(=O)Nc2cc(Cl)ccc2F)CC3)CC1 (stereo not given), the Potency was inconclusive: 70.8 µM [inhibitor, single point]. For CCCS(=O)(=O)N1CCCC1c1noc(COc2ccc(C)cc2)n1 (stereo not given), the “activity change, negative = cytotoxicity” value was inactive: -27.4%. For CN1CCC(C(=O)N2Cc3ccccc3CC3(CCCN(CC4CCOCC4)C3)C2)CC1 (stereo not given), the “activity change, negative = cytotoxicity” value was inactive: -15.9%. With CCCC(O)CN1CCC(=O)N(Cc2ccccc2)Cc2cc(F)ccc21 (stereo not given) the Potency was inconclusive: 50.1 µM [inhibitor, partial curve, poor fit]. In the case of N#Cc1cccc(CN2CCOC[C@H]2c2ncc(-c3ccc(Cl)s3)[nH]2)c1, the Potency is reported as inconclusive: 89.1 µM [inhibitor, partial curve]. For COCCNC(=O)C1CCCN(c2nccc(Nc3ccc(C)cc3)n2)C1 (stereo not given), the Potency was inconclusive: 35.5 µM [inhibitor, partial curve]. With COc1ccc(CN2CCC3(C2)C(=NC2CCCC2)NC(=O)N3c2cc(F)cc(F)c2)cc1 (stereo not given) the Potency was inconclusive: 50.1 µM [inhibitor, partial curve, poor fit]. In the case of Cc1nnc2ccc(N3CCC(NC(=O)c4ccc(Cl)cc4)C3)nn12 (stereo not given), the Potency is reported as inconclusive: 4.47 µM [inhibitor, partial curve, poor fit]. In the case of FC(F)(F)c1ccc(CN2CCC3(CC(c4cccc(C(F)(F)F)c4)=NO3)C2)cc1 (stereo not given), the Potency is reported as inconclusive: 44.7 µM [inhibitor, partial curve, poor fit]. With COCCOC(=O)N1CCC(Oc2cnc3c(ccn3-c3cncnc3)c2)CC1 the Potency was inconclusive: 35.5 µM [inhibitor, full curve, poor fit]. With CCNC(=O)N(C)Cc1cccc(N2CCN([S+](=O)([O-])c3c(Cl)cccc3Cl)CC2)c1F the Potency was inconclusive: 56.2 µM [inhibitor, partial curve, poor fit]. In the case of CC(=O)Nc1ccc(CN2C[C@@H](F)[C@@H](OCc3nc4cc(C)c(C)cc4[nH]3)C2)cc1, the Potency is reported as inconclusive: 31.6 µM [inhibitor, partial curve, poor fit]. In the case of COc1ccc(CC2CCN(C(=O)c3c(C)noc3-c3ccc4c(c3)OCO4)CC2)cc1, the Potency is reported as active: 25.1 µM. With CCN1C[C@H]2COc3ccccc3[C@H]2N(C(=O)c2ccc(C)cc2)CCC1=O the “activity change, negative = cytotoxicity” value was inactive: -29.8%. For Cc1cc(C2CC(C(=O)NCc3cccc(F)c3)CN(C(=O)C3CC3)C2)ccc1F (stereo not given), the Potency was inconclusive: 50.1 µM [inhibitor, partial curve, poor fit]. With CO[C@H]1C(=O)N(C(C)C)[C@H]1C1CCN(S(=O)(=O)c2ccc3c(c2)CCC3)CC1 the Potency was inconclusive: 44.7 µM [inhibitor, partial curve, poor fit]. With O=C(NCc1cccc(Cl)c1)c1cnc2c(c1)N(C(=O)Cc1ccc(O)cc1)CCC2 the Potency was inconclusive: 50.1 µM [inhibitor, partial curve, poor fit]. For CNC(=O)c1cccc(-c2cnc3[nH]cc(CC(=O)NCCOC)c3c2)c1, the Potency was inconclusive: 112 µM [inhibitor, single point]. For N#Cc1cccc(C(=O)NC2CCN(c3cc(-c4ccc(F)cc4)[nH]n3)C2)c1 (stereo not given), the Potency was inconclusive: 44.7 µM [inhibitor, partial curve, poor fit]. In the case of O=C(NCc1ccccc1)c1cn2cc(-c3ccc(F)cc3)sc2n1, the “activity change, negative = cytotoxicity” value is reported as inactive: -33.7%. For C#CCNC(=O)[C@@H]1Cc2cn(CC=C)c3cccc(c23)[C@H](CC(C)C)N1, the Potency was inconclusive: 112 µM [inhibitor, partial curve]. In the case of COc1ccc(-c2cc(N3CCCN(C(=O)c4ccsc4)CC3)n[nH]2)cc1, the Potency is reported as inconclusive: 39.8 µM [inhibitor, partial curve, poor fit]. For COc1cc(Cl)cc2cc(C(=O)N3CC[C@H](CO)[C@H](O)C3)oc12, the “activity change, negative = cytotoxicity” value was inactive: -27.3%. In the case of COc1ccc(NC(=O)c2cccc3c2CCN3C(=O)Nc2ccc(F)cc2)c(C)c1, the “activity change, negative = cytotoxicity” value is reported as inactive: -13%. In the case of Cc1ncsc1C(=O)N1CC(CNC(=O)C2CCOCC2)C2(C1)CN(c1ccccc1)C2 (stereo not given), the Potency is reported as inconclusive: 70.8 µM [inhibitor, single point]. For CC1=Nc2cc(C(=O)NCCCN(C)C)ccc2Sc2ccc(Cl)cc21, the Potency was active: 22.4 µM. For CN(C)Cc1cn(C[C@H]2C[C@@H](NC(=O)Nc3ccc4c(c3)OCCO4)[C@H](O)[C@@H]2O)nn1, the “activity change, negative = cytotoxicity” value was inactive: 4.97%. With CN1[C@@H](CCC(=O)N2CCN(c3ccccn3)CC2)CNC(=O)[C@@H]2[C@H]1CCN2Cc1cccs1 the Potency was inconclusive: 44.7 µM [inhibitor, partial curve, poor fit]. For CC(C)NC(=O)Cc1ccc(N(Cc2ccc(F)cc2)C(=O)c2ccco2)cc1, the “activity change, negative = cytotoxicity” value was inactive: -15.3%. In the case of COCCn1ncc(N2CCCC(CC(=O)Nc3ccc(C)c(F)c3)C2)cc1=O (stereo not given), the Potency is reported as inconclusive: 50.1 µM [inhibitor, partial curve, poor fit]. In the case of CC(=O)N1CCC2(CC1)CCN(c1ncccc1C#N)CC2CO (stereo not given), the “activity change, negative = cytotoxicity” value is reported as inactive: -3.08%.
% is set by controls: 0 for no effect and ±100 for the full control effect; potency is the fitted concentration of half-maximal effect; tags give direction and shape of the fitted curve.
